Single values are uncertain, as repeats are few or missing.
Legend:
CHO-K1 [1] = assay: micronucleus frequency (% of nucleated events); higher = more micronuclei (genotoxic)
CHO-K1 [2] = assay: hypodiploid nuclei frequency (% of nucleated events); higher = more hypodiploid events (aneugenic)
Procedure: (§1)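 Flow-cytometric in vitro micronucleus assay (Litron MicroFlow) in CHO-K1 cells in 96-well plates, 19 concentrations (4.5-200 µM, n=1 per concentration). Without S9, cells were exposed for 24 h and sampled at 48 h. With Aroclor 1254-induced rat liver S9, cells were exposed for 3-4 h and sampled at 27-28 h. Read-outs are %MN and %hypodiploid nuclei relative to nucleated events, and relative survival as the nuclei-to-bead ratio versus the 1% DMSO vehicle control (x100).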

CHO-K1 [3] = assay: relative survival (nuclei to bead ratio vs DMSO control) (% of vehicle control); higher = more surviving cells
Procedure: as §1
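Throughout, for hypodiploid nuclei frequency (% of nucleated events): hypodiploid nuclei gated on a flow cytometer with 488 nm excitation after SYTOX Green staining, cultures at 37 °C, positive controls vinblastine without S9 and cyclophosphamide with S9.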
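Throughout, for micronucleus frequency (% of nucleated events): cells lysed with nuclei stained by SYTOX Green, then micronucleus-gated events counted against nucleated events by flow cytometry with 488 nm excitation.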
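Throughout, for relative survival (nuclei to bead ratio vs DMSO control): Lysed-cell nuclei stained with SYTOX Green and counted against counting beads by flow cytometry at 488 nm excitation, with vinblastine (no S9) and cyclophosphamide (plus S9) as positive controls.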

CC(C)=CCCC(C)CCO (stereo unspecified) [Citronellol]
Settings | hypodiploid nuclei frequency, CHO-K1 [2] [%] | micronucleus frequency, CHO-K1 [1] [%] | relative survival, CHO-K1 [3]
concentration: 4.5 (µM), S9 metabolic activation: with S9, exposure time: 3-4 hours | 0.1 | 1.52 | 135
concentration: 4.5 (µM), S9 metabolic activation: without S9, exposure time: 24 hours | 0.7 | 1.84 | 119
concentration: 5.63 (µM), S9 metabolic activation: with S9, exposure time: 3-4 hours | 0.28 | 1.72 | 91.4
concentration: 5.63 (µM), S9 metabolic activation: without S9, exposure time: 24 hours | 0.64 | 2.22 | 111
concentration: 7.04 (µM), S9 metabolic activation: with S9, exposure time: 3-4 hours | 0.2 | 2.06 | 112
concentration: 7.04 (µM), S9 metabolic activation: without S9, exposure time: 24 hours | 0.8 | 2.64 | 108
concentration: 8.8 (µM), S9 metabolic activation: with S9, exposure time: 3-4 hours | 0.34 | 2.84 | 94.1
concentration: 8.8 (µM), S9 metabolic activation: without S9, exposure time: 24 hours | 1 | 3 | 110
concentration: 11 (µM), S9 metabolic activation: with S9, exposure time: 3-4 hours | 0.28 | 2.48 | 117
concentration: 11 (µM), S9 metabolic activation: without S9, exposure time: 24 hours | 0.98 | 3.32 | 101
concentration: 13.7 (µM), S9 metabolic activation: with S9, exposure time: 3-4 hours | 0.38 | 2.16 | 93.2
concentration: 13.7 (µM), S9 metabolic activation: without S9, exposure time: 24 hours | 0.68 | 2.56 | 103
concentration: 17.2 (µM), S9 metabolic activation: with S9, exposure time: 3-4 hours | 0.38 | 2.68 | 99.3
concentration: 17.2 (µM), S9 metabolic activation: without S9, exposure time: 24 hours | 1.06 | 3.5 | 103
concentration: 21.5 (µM), S9 metabolic activation: with S9, exposure time: 3-4 hours | 0.2 | 1.7 | 100
concentration: 21.5 (µM), S9 metabolic activation: without S9, exposure time: 24 hours | 1 | 3.7 | 98.5
concentration: 26.8 (µM), S9 metabolic activation: with S9, exposure time: 3-4 hours | 0.26 | 2.16 | 82.8
concentration: 26.8 (µM), S9 metabolic activation: without S9, exposure time: 24 hours | 0.92 | 1.6 | 78.7
concentration: 33.6 (µM), S9 metabolic activation: with S9, exposure time: 3-4 hours | 0.2 | 2.04 | 88.1
concentration: 33.6 (µM), S9 metabolic activation: without S9, exposure time: 24 hours | 0.96 | 2.42 | 82.9
concentration: 41.9 (µM), S9 metabolic activation: with S9, exposure time: 3-4 hours | 0.16 | 1.26 | 70.5
concentration: 41.9 (µM), S9 metabolic activation: without S9, exposure time: 24 hours | 0.76 | 2.34 | 89.8
concentration: 52.4 (µM), S9 metabolic activation: with S9, exposure time: 3-4 hours | 0.3 | 1.88 | 74.3
concentration: 52.4 (µM), S9 metabolic activation: without S9, exposure time: 24 hours | 0.94 | 3.94 | 103
concentration: 65.5 (µM), S9 metabolic activation: with S9, exposure time: 3-4 hours | 0.2 | 2.22 | 67.2
concentration: 65.5 (µM), S9 metabolic activation: without S9, exposure time: 24 hours | 1.04 | 3.14 | 82.9
concentration: 81.9 (µM), S9 metabolic activation: with S9, exposure time: 3-4 hours | 0.34 | 2.16 | 56.3
concentration: 81.9 (µM), S9 metabolic activation: without S9, exposure time: 24 hours | 1.48 | 2.66 | 79.6
concentration: 102 (µM), S9 metabolic activation: with S9, exposure time: 3-4 hours | 0.22 | 2.04 | 87.8
concentration: 102 (µM), S9 metabolic activation: without S9, exposure time: 24 hours | 2.28 | 3.52 | 76
concentration: 128 (µM), S9 metabolic activation: with S9, exposure time: 3-4 hours | 0.4 | 2.52 | 76.7
concentration: 128 (µM), S9 metabolic activation: without S9, exposure time: 24 hours | 10.4 | 2.62 | 60
concentration: 160 (µM), S9 metabolic activation: with S9, exposure time: 3-4 hours | 0.4 | 1.86 | 75.7
concentration: 160 (µM), S9 metabolic activation: without S9, exposure time: 24 hours | 2.92 | 4.76 | 59.3
concentration: 200 (µM), S9 metabolic activation: with S9, exposure time: 3-4 hours | 0.32 | 1.62 | 90.9
concentration: 200 (µM), S9 metabolic activation: without S9, exposure time: 24 hours | – | – | 32.5
